{"source": "PubChem BioAssay AID662", "about": "(National Center for Advancing Translational Sciences (NCATS), 2007)", "note": "Several values for one entry are separate records, joined by “and”; a condition that tells them apart may be missing. Equal entries are not always repeated. About 1,800 (2.5%) of roughly 71,000 compounds were called active. Inconclusive means that the source gave no clear call. Such entries were picked first, then a sample of the others. Calls come from the whole dose curve; as a rule, active = well fitted activation curve with a large enough effect in the signal ratio, with a control signal flat (not every such curve was filed as active); inconclusive = small, poorly fitted or top-dose-only effect, or effect the other way, or a change in a side signal; inactive = flat fitted curve, though single readings scatter; the % refers to the signal ratio. Where the call is inconclusive, the potency comes from a doubtful curve fit. Potency is the fitted concentration of half-maximal effect; tags give direction and shape of the fitted curve."}
{"assay": "Cell signaling CRE-BLA (Fsk stim); for activity change, negative = inhibition: % of control where 0% means no effect", "settings": "CHO CRE-bla reporter (cAMP response element driving beta-lactamase), forskolin EC10, beta-lactamase ratio; activity change, negative = inhibition: at 38.2 µM (top of the series) unless noted", "in_short": "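Titrated compounds plus EC10 NKH 477 on CHO CRE-bla cells, 3 h, 37 °C. CCF4, 2 h RT. Ratio 460/530 nm → AC50.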"}
{"smiles": "COC(=O)C(C)Oc1cc(C)cc2oc(=O)c3c(c12)CCCC3", "note": "(stereo not given)", "Potency": "inconclusive: 10 µM [rising, partial curve]"}
{"smiles": "O=S(=O)(O)F", "activity change, negative = inhibition": "inactive: -10.4%"}
{"smiles": "COc1ccc(CCNC(=O)c2c(N)n(CCN3CCOCC3)c3nc4ccccc4nc23)cc1", "Potency": "active: 6.31 µM"}
{"smiles": "COC(=O)C1C2c3ccccc3OC1(C)N=c1s/c(=C/c3cn(C)nc3C)c(=O)n12", "note": "(stereo not given)", "Potency": "inconclusive: 20 µM [rising, single point]"}
{"smiles": "Cn1c(C(=O)N2CCC(C(=O)N3CCC4(CC3)OCCO4)CC2)cc2sccc21", "activity change, negative = inhibition": "inconclusive: -6.44%"}
{"smiles": "COc1ccc(S(=O)(=O)Cc2ccc(C(=O)N3CCC4(CC3)OCCO4)o2)cc1", "activity change, negative = inhibition": "inconclusive: -4.98%"}
{"smiles": "CCn1cnc2c(Nc3cccc(Cl)c3)nc(N[C@@H]3CCCC[C@H]3N)nc21", "Potency": "inconclusive: 3.98 µM [falling, full curve]"}
{"smiles": "C=C1[C@@H]2C[C@@]3([C@H]1O)[C@H]1C[C@@H]4[C@@]5(C)CC[C@H](O)[C@]4([C@H]1N(CC)C5)[C@H]3C[C@H]2O", "activity change, negative = inhibition": "inactive: -3.76% [at 17.1 µM]"}
{"smiles": "CC1CC(=O)O1", "note": "(stereo not given)", "activity change, negative = inhibition": "inactive: -8.95%"}
{"smiles": "COCCn1cc(C(=O)N2CCC3(CC2)OCCO3)c2c3ccccc3n(C)c2c1=O", "activity change, negative = inhibition": "inactive: 9.96%"}
{"smiles": "C[C@@H](Cc1cccc(C(F)(F)F)c1)NCCCc1ccccc1", "Potency": "inconclusive: 15.8 µM [falling, partial curve, poor fit]"}
{"smiles": "CC1CCCCN1CC(=O)c1ccc2cc[nH]c2c1", "note": "(stereo not given)", "Potency": "inconclusive: 3.16 µM [falling, full curve]"}
{"smiles": "CCC(=NCCC1=CCCCC1)c1c(O)[nH]c(=O)[nH]c1=O", "Potency": "inconclusive: 12.6 µM [rising, single point]"}
{"smiles": "CC(C)CCn1c(N)c(C(=O)OCC2CCCO2)c2nc3ccccc3nc21", "note": "(stereo not given)", "Potency": "inconclusive: 2 µM [rising, partial curve]"}
{"smiles": "Cn1c(O)c(C=NC2CC3CCC2(C)C3(C)C)c(=O)[nH]c1=O", "note": "(stereo not given)", "activity change, negative = inhibition": "inconclusive: 16.1%"}
{"smiles": "COc1ccc(C(c2ccc(OC)cc2)C(Cl)(Cl)Cl)cc1", "activity change, negative = inhibition": "inconclusive: -17.3%"}
{"smiles": "Nc1nnnn1CCO", "activity change, negative = inhibition": "inactive: 5.09% [at 7.6 µM]"}
{"smiles": "CCOC(=O)N(c1ccccc1)P1(=S)OCCO1", "Potency": "inconclusive: 5.01 µM [rising, single point]"}
{"smiles": "O=P(c1ccccc1)(c1ccccc1)N1CC2(CC2)CC(O)(c2ccccc2)C1", "note": "(stereo not given)", "activity change, negative = inhibition": "inactive: -6.98%"}
{"smiles": "CCOC(=O)c1c(C)n(Cc2ccccc2)c2ccc(OCC(O)Cn3nc(C)nc3C)cc12", "note": "(stereo not given)", "Potency": "inconclusive: 6.31 µM [rising, partial curve]"}
{"smiles": "c1ccc(C[N+]23CN4CN(CN(C4)C2)C3)cc1", "activity change, negative = inhibition": "inactive: 13.2% [at 7.6 µM]"}
{"smiles": "CCOc1cc(C=O)ccc1O", "Potency": "inconclusive: 31.6 µM [rising, single point]"}
{"smiles": "CC(C)NS(=O)(=O)c1ccc(OCC(=O)N2CCN(C)CC2)cc1", "activity change, negative = inhibition": "inactive: -0.928%"}
{"smiles": "Cc1cc2c(C(F)(F)F)cc(=O)oc2c2c1NCCC2", "activity change, negative = inhibition": "inconclusive: 3.98% [fluorescent]"}
{"smiles": "CCOC(=O)c1c(N)n(CCN2CCCCC2)c2nc3ccccc3nc12", "activity change, negative = inhibition": "inactive: 15.9%"}
{"smiles": "O=c1c2ccccc2nc(-c2ccco2)n1-c1cccnc1", "activity change, negative = inhibition": "inconclusive: 21%"}
{"smiles": "CCC(Cl)[N+](=O)[O-]", "note": "(stereo not given)", "activity change, negative = inhibition": "inactive: 0.528%"}
{"smiles": "O=C(O)c1cc[c]([Hg][Cl])cc1", "activity change, negative = inhibition": "inactive: -15.2%"}
{"smiles": "CC1=NN=C(c2ccc(N)cc2)c2cc3c(cc2C1)OCO3", "activity change, negative = inhibition": "inconclusive: 3.27%"}
{"smiles": "CN1C(=O)C(Cc2cccc3ccccc23)C(=O)N(C)C1=O", "Potency": "inconclusive: 0.00794 µM [falling, full curve, poor fit]"}
{"smiles": "O=P(O)(O)C(Cl)(Cl)P(=O)(O)O", "activity change, negative = inhibition": "inactive: -2.93%"}
{"smiles": "CCCCCn1c(=O)c(C(=O)NCc2ccccn2)c(O)c2ccccc21", "Potency": "inconclusive: 10 µM [rising, partial curve]"}
{"smiles": "CN1C(=O)N(C)C(=O)C2(Cc3cc(N)ccc3N3CCN(c4ccccc4F)CC32)C1=O", "note": "(stereo not given)", "activity change, negative = inhibition": "inconclusive: 4.58%"}
{"smiles": "C[C@]12C/C(=C/O)C(=O)C[C@@H]1CC[C@@H]1[C@@H]2CC[C@@]2(C)[C@H]1CC[C@]2(C)O", "activity change, negative = inhibition": "inconclusive: 10.4%"}
{"smiles": "CC12CCCCC1N(O)CN2O", "note": "(stereo not given)", "activity change, negative = inhibition": "inconclusive: 4.04%"}
{"smiles": "C[C@@]12CCC(=O)C=C1C=C[C@H]1[C@H]3CC[C@](O)(CCC(=O)O)[C@]3(C)CC[C@@H]12", "activity change, negative = inhibition": "inactive: 12.9% [at 17.1 µM]"}
{"smiles": "COc1cccc(OC)c1C1=NCC(=O)Nc2c1oc1ccc(Br)cc21", "Potency": "inconclusive: 10 µM [rising, partial curve]"}
{"smiles": "CN(C)C(=O)Oc1ccc(Cl)c2ccccc12", "activity change, negative = inhibition": "inactive: 8.51%"}
{"smiles": "O=C1NC(=O)[C@]2(Cc3ccccc3N3CCN(c4ccccc4)CC32)C(=O)N1Cc1ccccc1", "note": "(stereo not given in full)", "Potency": "inconclusive: 10 µM [falling, single point]"}
{"smiles": "COc1ccc2c(c1)[C@]13CCCC[C@@H]1[C@H](C2)NCC3", "activity change, negative = inhibition": "inactive: -0.617%"}
{"smiles": "COc1cccc(C2=NOC(C(=O)N3CCC4(CC3)OCCO4)C2)c1", "note": "(stereo not given)", "activity change, negative = inhibition": "inconclusive: 0.466%"}
{"smiles": "CCCCCCN=C(C)c1c(O)n(CCCC)c(=O)[nH]c1=O", "Potency": "inconclusive: 2.51 µM [rising, full curve, poor fit]"}
{"smiles": "CC(C)(C)c1nc(N2CCN(C(=O)c3ccco3)CC2)c2nnn(Cc3ccccc3Cl)c2n1", "activity change, negative = inhibition": "inconclusive: -14.3%"}
{"smiles": "CCOC(=O)N(C)c1ccc(C(O)(C(=O)OCC)C(F)(F)F)cc1", "note": "(stereo not given)", "activity change, negative = inhibition": "inactive: 9.49%"}
{"smiles": "N[C@@H](Cc1c[nH]c2ccccc12)c1nnc(SCc2ccc(Cl)cc2)o1", "activity change, negative = inhibition": "inconclusive: 13.5%"}
{"smiles": "COCCCn1c(N)c(C(=O)OCCOC)c2nc3ccccc3nc21", "Potency": "active: 10 µM"}
{"smiles": "O=C(Cn1ncc2c3ccccc3n(Cc3ccccc3)c2c1=O)N1CCC2(CC1)OCCO2", "activity change, negative = inhibition": "inactive: 15.4%"}
{"smiles": "Oc1ccc2c3c1O[C@H]1c4[nH]c5ccccc5c4C[C@]4(O)[C@H](C2)N(CC2CC2)CC[C@@]314", "activity change, negative = inhibition": "inconclusive: -28.5%"}
{"smiles": "CC(=NCCO)c1c(O)n(C2CCCCC2)c(=O)[nH]c1=O", "activity change, negative = inhibition": "inconclusive: 19.6%"}
{"smiles": "CCCCn1c(C)c(C(=O)O)c2cc(OC)ccc21", "activity change, negative = inhibition": "inactive: -15.8%"}
{"smiles": "c1ccc(N2CC3(CCNCC3)C2)cc1", "activity change, negative = inhibition": "inactive: -6.49%"}
{"smiles": "O=C1C[C@H]2OCCC=C3CN4CC[C@@]56c7ccccc7N1[C@@H]5[C@H]2[C@H]3C[C@@H]46", "activity change, negative = inhibition": "inactive: -9.19%"}
{"smiles": "CN=C=O", "activity change, negative = inhibition": "inactive: -2.34%"}
{"smiles": "CC(C)(C)c1cc(O)ccc1O", "activity change, negative = inhibition": "inconclusive: -23.7% and inconclusive: -19%"}
{"smiles": "COC[C@H]1OC(=O)c2coc3c2[C@@]1(C)C1=C(C3=O)[C@H]2CCC(=O)[C@@]2(C)C[C@H]1OC(C)=O", "Potency": "inconclusive: 15.8 µM [falling, partial curve, poor fit]"}
{"smiles": "CN(C)[C@@H]1C(=O)C(C(N)=O)=C(O)[C@]2(O)C(=O)C3=C(O)c4c(O)cccc4[C@@](C)(O)[C@H]3[C@H](O)[C@@H]12", "activity change, negative = inhibition": "inactive: -1.66% [at 17.1 µM]"}
{"smiles": "O=C1N(CN2CCOCC2)c2ccccc2C1(O)c1c[nH]c2ccccc12", "note": "(stereo not given)", "Potency": "inconclusive: 12.6 µM [falling, single point]"}
{"smiles": "COC(=O)c1cc2c(cn1)[nH]c1ccccc12", "activity change, negative = inhibition": "inactive: -2.28%"}
{"smiles": "OC[P+](CO)(CO)CO", "activity change, negative = inhibition": "inactive: -11.7%"}
{"smiles": "Clc1cc(Cl)c(-c2cc(Cl)c(Cl)cc2Cl)cc1Cl", "Potency": "inconclusive: 15.8 µM [rising, partial curve]"}
{"smiles": "CCOC(=O)c1c(N)n(Cc2ccccc2)c2nc3ccccc3nc12", "Potency": "inconclusive: 6.31 µM [rising, partial curve]"}
{"smiles": "C[C@](N)(CCP(=O)(O)O)C(=O)O", "activity change, negative = inhibition": "inconclusive: -2.42%"}
{"smiles": "CC(=O)O[C@@H]1CN2CCC1CC2", "activity change, negative = inhibition": "inconclusive: -11.2%"}
{"smiles": "O=P(O)(O)CCP(=O)(O)O", "activity change, negative = inhibition": "inactive: -3.35% [at 7.6 µM]"}
{"smiles": "CCC(=NCCCN1CCOCC1)c1c(O)n(Cc2ccccc2)c(=O)[nH]c1=O", "activity change, negative = inhibition": "inconclusive: 8.22%"}
{"smiles": "COC(=O)[C@H]1C(=O)[C@H](C(=O)OC)[C@@H]2CC[C@H]1N2C", "Potency": "inconclusive: 5.01 µM [rising, single point]"}
{"smiles": "COCCOC(=O)c1c(N)n(Cc2ccccc2)c2nc3ccccc3nc12", "Potency": "active: 15.8 µM"}
{"smiles": "Cc1ccc(C)c(NC2=NCCCS2)c1", "Potency": "inconclusive: 5.01 µM [falling, single point]"}
{"smiles": "COc1ccc(C[C@@H]2NC[C@H](O)[C@@H]2OC(C)=O)cc1", "activity change, negative = inhibition": "inconclusive: -29.4% [at 17.1 µM]"}
{"smiles": "Oc1ccccc1-c1ccccc1", "activity change, negative = inhibition": "inactive: -0.521%"}
{"smiles": "COC(=O)c1c(N)n(Cc2ccc(OC)cc2)c2nc3ccccc3nc12", "Potency": "active: 15.8 µM"}
{"smiles": "NCCCP(=O)(O)CCc1ccccc1", "activity change, negative = inhibition": "inconclusive: 3.06%"}
{"smiles": "CCCn1c(C)c(C(=O)c2cccc3ccccc23)c2ccccc21", "activity change, negative = inhibition": "inconclusive: -10.9%"}
{"smiles": "COc1ccccc1OCCCn1cc(C(=O)c2ccco2)c2ccccc21", "activity change, negative = inhibition": "inactive: 0%"}
{"smiles": "CC(=NCc1ccc2c(c1)OCO2)c1c(O)n(C)c(=O)n(C)c1=O", "activity change, negative = inhibition": "inconclusive: 27.3%"}
{"smiles": "CCCN[C@@H]1CCc2c(OC)cccc2[C@@H]1C", "Potency": "inconclusive: 25.1 µM [falling, partial curve]"}
{"smiles": "COc1cc2c(cc1OC)-c1c(OC)c(OC)c(CO)c3c1[C@H](C2)N(C)CC3", "Potency": "inconclusive: 20 µM [rising, partial curve, poor fit]"}
{"smiles": "CC(=O)N1CCN(c2ccc(N=Cc3c(O)n(-c4ccc(Cl)cc4)c(=O)[nH]c3=O)cc2)CC1", "Potency": "inconclusive: 25.1 µM [falling, single point]"}
{"smiles": "CCc1nc2ccccc2c(=O)n1-c1cccc(OC)c1", "Potency": "inconclusive: 15.8 µM [rising, single point]"}
{"smiles": "CN(C)[C@@H]1C(=O)C(C(N)=O)=C(O)[C@@]2(O)C(=O)C3=C(O)c4c(O)cccc4[C@@](C)(O)[C@H]3[C@H](O)[C@@H]12", "Potency": "inconclusive: 12.6 µM [falling, partial curve]"}
